B1: CPEB3 Ribozyme (parent)
chain: UAACAGGGGGCCACAGCAGAAGCGUUCACGUCGCAGCCCCUGUCAGAUUCUGGUGAAUCUGCGAAUUCUGCUGUAUAUCUC

Experimental findings from the RNAGym collection of RNA variant scans (doi:10.1093/nar/gkz1192) are described below.

Read counts are not given, so values of variants with three or more changes are uncertain.

In the data set the parent is B1. Nature of the data set: self-cleavage, relative activity (ratio to wild type); higher = more cleavage; in vitro, sequencing. Put shortly: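 Libraries of CPEB3 self-cleaving ribozyme mutants came from rounds of error-prone PCR and carried barcodes, which DNA sequencing matched to variants. In vitro transcription used T7 RNA polymerase at 37°C for 5 hours, with a further 15 min in DNase I before EDTA stopped the reaction; the ribozymes cleaved during both steps. The RNA was reverse transcribed with template switching and sequenced on Illumina. Relative activity is the cleaved/total read fraction of a variant divided by that of the unmutated ribozyme, averaged over three batches with at least 5 reads.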
UAACAGGGGGGCACAGCAGAAGCGUUGACGUCGCAGCCCCUGACAGAUUCUGGUGGAUCUGCGAAUUCUGCUGUAUACCUC: the self-cleavage amounted to 0.05.
As to UAACAGGGGGGCACAGCAGAAGCGUUCGCGUCGCAGCCCCUGUCAGAUUCUGGUGAAUCUGCGGAUGCUGCUGUAUAUCUC, the self-cleavage was found to be 0.07.
For the variant UAACAGGGGGGCACAGCAGAAGGGUCCACGUCGCAGCCCCUGUCAGAUUCUGGUGAAUCUGCGAAUUCUGCUGUAUAUUUC, the self-cleavage came to 0.07.
Take UAACAGGGGGGCACAUCAGAAGCGUUCGCGUCGCAGCCCCUGUCAGAUUCUGGUGAAUCUGCGAAUUCUGCUGUAUAUCUC: the self-cleavage was found to be 0.28.
To UAACAGGGGGGCACAGCAGAAGAGUUCACGCCGCGGCCCCUGUCAGAUACUGGUGGAUCUGCGAAUUCUGCUGUAUAUCUC belongs 0.05.
As to UAACAGGGGGGCACAGCAGAAGCGUUCACGUCGCAGACCCUGCCAGAUUCUGGAGAAUCUGCGAAUUCUGCUGUAUAUCUC, the self-cleavage turned out to be 0.09.
In the case of UAACAGGGGGGCACAGCAGAAGCGUUAACGUCGCAGCCCCUGUCAGACUCUGGUGAAUCUGCGAAUUCUGCCGUAUAUCUC, the self-cleavage worked out at 0.24.
Take UAACAGGGGGGCACAGCAGAAGCGUUCACGUCGCGGCCCCUGUCAGAUUCUGGUGAAUCUGCGAAUUCUGCUGUAUAUCCC: the self-cleavage amounted to 0.22.
On to UAACAGGGGGGCACAGCAGAAGCGUUCGCGUCGCAGCCCCAGUCAGACUCUGGUGAAUCUGCGAAUUCUGCUGAAUAUCUC, for which the self-cleavage was determined as 0.27.
To UAACAGGGGGGCACAGCACAAGCGUCCACGUCGCAGCCCCUGUCAGACUCUGGUGCAUCUGCGAGUUCUGCUGUAUAUCUC belongs 0.03; to UAACAGGGGGGCACAGCAGAAGCGUUCACGUCGCAGCCCCUGUCAGAUUCUGGUGAGUCUGCCAAUUCUGCUGUAUAUCCC, 0.46.
For the variant UAACAGGGGGGCACAGCAGAAGCGUUCACGUCGCAGCACCUGUCAGAUUCUGGUGAAUCCGCGAAUUCUGCUAUAUAUCUC, the self-cleavage was 0.09.
To UAACAGGGGGGCAUAGCAGAAGCGUUCACGUCGCAGUCCCUGUCAGAUUCUGGUGGAUCUGCGAAUUCUGCUGUAUAUCCC belongs 0.5.
In the case of UAACAGGGGGGCACAGCAGAAGCGUUCACGUCGUAGCCCCUGUCAGAUUCUGGUGAAUCUGCGAACUCUGCUGUAUAUCUC, the self-cleavage came to 0.06.
As to UAACAGGGGGGCACAGCAGAAGCGUUCACGUCGCAGCCCAUGUCUGAUUCUGGUGAAUCCGCGAUUUCUGCUGUAUAUCUC, the self-cleavage was found to be 0.03.
To UAACAGGGGGGCACAGUAGAAGCGCUCACGUCGCAGCCCCUGUCGGAUUCUGGUGAUUCUGCGAAUUCUGCUGUAUAUCUC belongs 0.04; to UAACAGGGGGGCACAGCAGAAGUGUUCACGUCGCCGCCCCUGUCAGAUUCUGGUGAAUCUGCGAAUUCUGCAGUAUAUCUC, 0.07.
To UAACAGGGGGGUACAGCAGGAGCGUUCACGUCGCAGCCCCUGUCAGAUUCUGGUGAAUCUGCGAAUUCUGCUGUAUAUCUC belongs 0.48; to UAACAGGGGGGCACAGCAGAAGCGUUCACGUCGCAGCCCCUGUCUGAUUCUGGUGAAUCCGCGAAUUCUGCUGUAUAUCUC, 0.62; to UAACAGGGGGGCACAGCAGAGGCGUUCAUGUCGCAGCCCCUGUCAGAUUCUGGUGAAUCUGCGAAUUCUGCUGUAUAUCUC, 0.42.
Take UAACAGGGGGGCACAGCAGAGGCGAUCGCGUCGCAGCCCCUGUCAGAUUCUGGUGAGUCUGCGAAUCCUGCUGUAUAUCUC: the self-cleavage was 0.18.
Consider UAACAGGGGGGCACAGCAGAAGCGUUCAAGUCGCAGCCCCUGUCAGACUCUGGUGAAUCUGCGAAUUCUGCCGUAUAUCUC, for which the self-cleavage was determined as 0.12.
In the case of UAACAGGGGGGCACAACAGAAGCGUUCACGUCGCAGCCCCCGUCAGAUUCUGGUGGAUCUGCGAAUUCUGCUGUAUACCUC, the self-cleavage stood at 0.08.
On to UAACAGGGGGGCACAGCAGAAGCGUUCACGUCGCAGCCCCUGUCUGAUUCUGGUGAAUCCGCGAAUACUGCUGUAUAUCUC, for which the self-cleavage stood at 0.03.
For UAACAGGGGGGCACAGCAGAGGCGUUCACGUCGCAGCCCCUGUCAGAUUCUGGUGUAUCUGCGAAUUCUGCUGUAUAUCUC, the self-cleavage is 0.03.
To UAACAGGGGGGCAAAGCAGAAGCGUUUACGUCGCAGCCCCUGUCUGAUUCUGGUGAAUCUGCGAAUUCUGCUGUAUAUCCC belongs 0.09; to UAACAGGGGGGCACAGCAGAUGCGAUUACGUUGCAGCCCCUGUCAGAUUCUGGUGAAUCUGCGAAUUCUGCUGUAUAUCUC, 0.06.
Regarding UAACAGGGGGGCACAGCAGAAGCGUUCAUGUCGCAGCCCCUGUCAGAUUCUGGUGAAUCUGCGAAAUCUGCUGUAUAUCUC, the self-cleavage was found to be 0.04.
Turning to UAACAGGGGGGCACAGCAGAAGCGUUCACGUCGCGGCCCCUGUCAGAUUCCGGUGAAUCUGCGUAUUCUGCUGUAUAUCUC, the self-cleavage was determined as 0.28.
To UAACAGGGGGGCACAGCAGAGGCGUCCACGUCGCAGCCCCUGUCAGAUUCUGGUGAACCUGCGAAUCCAGCUGUAUAUCUC belongs 0.04.
With UAACAGGGGGGCACAGCAGAAGCGUUCACGUCGCAGCCCCUGUCGGAUUCUGGUGAAUCUGCGUAUUCUGCCGUAUAUCUC, the self-cleavage stood at 0.25.
For the variant UAACAGGGGGGCACAGCAGAGGCGUCCACGUCGCAGCCCCUGUCAGAUACUGGUGAACCUGCGAAUUCUGCUGUAUAUCUC, the self-cleavage turned out to be 0.05.
To UAACAGGGGGGCACAGCAGAAGCGUUCACGUCGCAGCCCCUGUCAGAUUCUGGUGAAUCUGCGAUUUCCGCCGUAUAUCUC belongs 0.09; to UAACAGGGGGGCACAGCAGAAGCGUUCACGUCGCAGCCCCUGUUAGAUUCUGGUGAAUCUGCGACUUCUGCUGUAUAUCUC, 0.09.
